Measured values: the supplement of paper PMC3334620
In all, about 33,000 sequences were measured (“E-score (-0.5 to 0.5)”: median about -0.017, highest 2% from about 0.3 on). The list shows a part of the results.

target: T1, Sut1 (UniProt P53032); experiment: PBM E-score (8-mer binding enrichment) (E-score (-0.5 to 0.5)); higher = stronger / more preferred TF binding; most listed sequences are background and not binding sites; settings: protein concentration: 200 nM; construct: GST-full length
T1 sequence: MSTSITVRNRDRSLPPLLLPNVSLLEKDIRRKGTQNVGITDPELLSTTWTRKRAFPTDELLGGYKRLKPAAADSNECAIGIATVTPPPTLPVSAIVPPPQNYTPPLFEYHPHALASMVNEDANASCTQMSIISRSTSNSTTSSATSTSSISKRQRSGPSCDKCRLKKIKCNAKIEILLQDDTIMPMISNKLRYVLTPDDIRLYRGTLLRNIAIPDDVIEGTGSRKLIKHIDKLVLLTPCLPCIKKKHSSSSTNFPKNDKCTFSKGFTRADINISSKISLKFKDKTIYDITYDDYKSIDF
In short: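 Yeast transcription factors, full-length or as DNA-binding domains, were expressed with a GST tag using PURExpress in vitro transcription/translation. At about 100-200 nM they were applied to universal all-10-mer Agilent arrays, double-stranded by primer extension on fresh or once-stripped slides. Fluorescent anti-GST detected bound protein, and masliner normalised the scans. E-scores for ungapped eight-base words, pooled with reverse complements, came from the Universal PBM Analysis Suite.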

In order of falling “PBM E-score” value:
1. TCCGATAA  0.387
2. CGTACTCC  0.348
3. AGCCCGGA  0.341
4. CGGAGCAA  0.311
5. TGATTTAA  0.3
6. ATTGTTGG  0.286
7. GGACAAAA  0.274
8. AACCTTAA  0.272
9. ACATTAAA  0.259
10. ACACTAAA  0.243
11. AAACTAAG  0.242
12. AATAATGC  0.24
13. AAGTTAAA  0.229
14. CGGAACTA  0.229
15. GAAGATAA  0.214
16. ACTATTGA  0.209
17. AGATTCGG  0.201
18. ACCGAAAA  0.196
19. CTGACTAA  0.182
20. CTGTAGTA  0.175
21. GGATATCC  0.168
22. TACGAAAA  0.167
23. TCATTTCA  0.164
24. GATTTTTA  0.164
25. ACTAAAAC  0.159
26. AATTCTAC  0.157
27. TGCACTAA  0.148
28. ATGTAAAC  0.147
29. GTAACTAA  0.144
30. ATTGCTAA  0.142
31. CCGGGTAA  0.136
32. AACTTAAG  0.132
33. CATCAAAA  0.13
34. GAATAGGA  0.128
35. AGACCGAG  0.128
36. GGATTGTA  0.128
37. CTGATATA  0.126
38. GCTTGCAA  0.123
39. ACGATAAG  0.122
40. TAATCTCA  0.116
41. GAGTATGA  0.114
42. CGTTAGAA  0.111
43. ATACATTC  0.11
44. AGTCATAT  0.108
45. ACGCAACT  0.104
46. GAAGAATC  0.0983
47. ATATAGGC  0.0982
48. AATGGTCC  0.0931
49. ACGTTTCG  0.0915
50. CGGATCTA  0.0914
51. AAAAAGAG  0.0874
52. ACCGATCG  0.0856
53. GAATATCC  0.0832
54. GTTCATCA  0.0824
55. AGAAAACT  0.0795
56. ATCATCAT  0.0766
57. AATGTCGT  0.0765
58. AAGCTTAG  0.0746
59. AGTGGATA  0.0737
60. AGAGTTTG  0.0735
61. CGGCAACA  0.0712
62. AGTGCTAA  0.0673
63. CGGTGGAA  0.0654
64. ACATTCTA  0.0618
65. CCCAAAAC  0.0566
66. GCGAATAA  0.0539
67. ACATGGAC  0.0532
68. AGTGGGAA  0.0467
69. CGAACGTA  0.0459
70. GGGTATAA  0.0427
71. CTCTTACA  0.0424
72. ACGGACCC  0.0412
73. GACTACCA  0.0405
74. AGCTGACT  0.0365
75. AAGTCCAG  0.0358
76. CATGCACA  0.0355
77. CGACAGGA  0.0329
78. CCGGCGTA  0.0295
79. GCAGCACC  0.0294
80. GTCGTTAA  0.0288
81. CATATTGA  0.0287
82. ATGGAGTC  0.0281
83. ACGTAAAT  0.0259
84. ACAGATAT  0.0244
85. AACCGTGC  0.0224
86. ATCGCACA  0.0222
87. ACCCTATC  0.0201
88. CATTATGA  0.0195
89. AGCACATC  0.0169
90. CGGCATTC  0.0158
91. ACTTCCTA  0.0153
92. CCTGTATA  0.0144
93. CACTAGTG  0.0135
94. GACGGATA  0.0131
95. CGGTAGCC  0.00984
96. CAGTTCGA  0.00658
97. CGATCACC  0.00494
98. AATGACAG  0.00358
99. CTTGGATC  0.00255
100. CATCTAAC  0.00013
101. CCTATTTC  -0.00185
102. GACCGATA  -0.00646
103. GCGCGGTA  -0.00738
104. CAATGTTC  -0.00988
105. ATAGGTAG  -0.0143
106. CACTCGAC  -0.0164
107. CTGCGAAA  -0.0164
108. GAGACGTA  -0.0178
109. AAGCGCAA  -0.0186
110. AGGGATTG  -0.0188
111. GGAATGGA  -0.0245
112. CTTCTGAA  -0.0253
113. CGATACCA  -0.0261
114. GACATCAC  -0.0298
115. ATTTGGAG  -0.031
116. CAACAAGC  -0.0335
117. CACATTAG  -0.0351
118. CGGTGCTA  -0.0351
119. CGCCTGAC  -0.036
120. GCAGATAC  -0.0367
121. CCAATAGA  -0.0393
122. AATGACTC  -0.0398
123. TACGCCTA  -0.0462
124. GCGAACCC  -0.0462
125. CCTTCGAG  -0.047
126. ACTCCCGC  -0.0488
127. AGCATCCG  -0.0507
128. CCATGTCC  -0.051
129. CAAGTCAG  -0.0539
130. AAAGGACT  -0.054
131. CGGGTGCA  -0.0548
132. AGAGACAC  -0.0557
133. AACGTGCA  -0.0602
134. GTAGCTAC  -0.0627
135. AAACCTGC  -0.0637
136. ACTTAAGC  -0.0646
137. GATCCGCC  -0.0664
138. GCAATTGC  -0.0673
139. AGCACTAG  -0.0676
140. TCTGAGCA  -0.0691
141. ACTGTGGA  -0.0692
142. TAGAGCGA  -0.0705
143. CGAGCCCC  -0.0719
144. ACAAGAGA  -0.0728
145. CGTCACCA  -0.0749
146. AAAGTCTC  -0.0767
147. AGACGACT  -0.0824
148. GGGTGTCA  -0.0836
149. GGGACTTA  -0.0858
150. TACCTCCA  -0.0864
151. CGGGACGA  -0.0871
152. ACCTACGT  -0.0888
153. CCCGATCG  -0.0909
154. ACGACTCT  -0.091
155. AGACCAGA  -0.0941
156. CATTGGAG  -0.0942
157. ATGCACCC  -0.0946
158. GCCCGCAA  -0.0979
159. CCGCGACG  -0.101
160. ACGGGCTA  -0.104
161. CTCTGTCC  -0.104
162. ATTCCCTG  -0.109
163. CAAATGTC  -0.117
164. AGTCATCA  -0.123
165. AGCCCAAC  -0.13
166. GATAGCCC  -0.132
167. GGGTGCTA  -0.132
168. ACACGCCA  -0.133
169. CCAGCTTC  -0.137
170. ATCGCTTA  -0.138
171. GTTCGCCA  -0.14
172. CCCCGACC  -0.142
173. ATTGGCGC  -0.145
174. ACAGCGAG  -0.145
175. CGTCGCAG  -0.147
176. CGCACTAC  -0.148
177. AGCTGTCC  -0.15
178. CATCTGGA  -0.15
179. CTAGGCAA  -0.15
180. CTGGGAAG  -0.155
181. GTCAGCCA  -0.157
182. AAAGGGCC  -0.16
183. CTGAGAAC  -0.162
184. GAGGCTGC  -0.163
185. CAACCCTG  -0.163
186. CACTCTGA  -0.165
187. CCGCCTAG  -0.166
188. AGGGAAAG  -0.176
189. GAACTGCC  -0.177
190. CAATGGCC  -0.182
191. AGCCCACA  -0.186
192. CTGGGTCC  -0.192
193. CAGTGGGC  -0.194
194. CTGTATCA  -0.196
195. ATGCTCTG  -0.197
196. CATCACGA  -0.198
197. AGCCCCTC  -0.199
198. GGGGTATA  -0.201
199. AGCAGTAG  -0.205
200. CTACGAAG  -0.207
201. GGGGCTAA  -0.208
202. ATCTGCGA  -0.209
203. AGCGCGTC  -0.218
204. CAAACGCA  -0.227
205. ACACTACC  -0.23
206. ACATGGCG  -0.245
207. CCACGTGA  -0.253
208. GTCGAGCA  -0.255
209. CGGGGGAG  -0.258
210. GGCCGCAA  -0.262
211. ACGGCGCC  -0.262
212. GACTTGCC  -0.27
213. GCGCATGA  -0.282
214. CCCCTGCA  -0.29
215. AACGTGGG  -0.302
216. CCTCTCGA  -0.303
217. AGGGAGGA  -0.319
218. CCCCTACG  -0.358
219. CCAGGGCC  -0.371
